# Measured values from the supplement of paper PMC4604168 (melanoma cell lines).
# This is one part of the list. Repeats are few or missing, and single values can be far off.
# Assays:
# Assay in all cases: cell count relative to DMSO control; melanoma cells; higher = more viable cells
# Settings in all cases: library dose: low library concentration; 72 h
# WM115 = tested on: WM115
# WM1716 = tested on: WM1716
# WM1745 = tested on: WM1745
# WM3526 = tested on: WM3526
# WM3619 = tested on: WM3619
# WM451Lu = tested on: WM451Lu
# 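Further: cell number obtained by counting DAPI-stained nuclei in high-throughput microscope images with image analysis software, screen run in 1,536-well plates.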
SMILES,cell count (WM115),cell count (WM1716),cell count (WM1745),cell count (WM3526),cell count (WM3619),cell count (WM451Lu)
"CC[C@]1(O)C[C@H]2CN(CCc3c([nH]c4ccccc34)[C@@](C(=O)OC)(c3cc4c(cc3OC)N(C=O)[C@H]3[C@@](O)(C(=O)OC)[C@H](OC(C)=O)[C@]5(CC)C=CCN6CC[C@]43[C@@H]65)C2)C1 [vincristine] + CC1(C)CCC(c2ccc(Cl)cc2)=C(CN2CCN(c3ccc(C(=O)NS(=O)(=O)c4ccc(N[C@H](CCN5CCOCC5)CSc5ccccc5)c(S(=O)(=O)C(F)(F)F)c4)cc3)CC2)C1 [ABT263] (first compound 0.0001 µM, partner dose 0.4 µM)",81.7%,89%,35.8%,113%,82.1%,65%
"CC[C@]1(O)C[C@H]2CN(CCc3c([nH]c4ccccc34)[C@@](C(=O)OC)(c3cc4c(cc3OC)N(C=O)[C@H]3[C@@](O)(C(=O)OC)[C@H](OC(C)=O)[C@]5(CC)C=CCN6CC[C@]43[C@@H]65)C2)C1 [vincristine] + N#Cc1c(O)c2c(-c3ccc(-c4ccccc4O)cc3)csc2[nH]c1=O [A769662] (first compound 0.0001 µM, partner dose 2 µM)",60.4%,51.1%,84.8%,83.2%,59.3%,56.7%
"Cc1cc(Nc2cc(N3CCN(C)CC3)nc(Sc3ccc(NC(=O)C4CC4)cc3)n2)n[nH]1 [Tozasertib] + O=C(Nc1cc(C(F)(F)F)cc(C(F)(F)F)c1)c1cc(Cl)ccc1O [IMD0354] (first compound 0.006 µM, partner dose 0.016 µM)",104%,87.3%,92.9%,78%,82.6%,92.4%
"Cc1cc(Nc2cc(N3CCN(C)CC3)nc(Sc3ccc(NC(=O)C4CC4)cc3)n2)n[nH]1 [Tozasertib] + CCCS(=O)(=O)Nc1ccc(F)c(C(=O)c2c[nH]c3ncc(Cl)cc23)c1F [PLX4720] (first compound 0.006 µM, partner dose 0.08 µM)",87.2%,103%,89%,84.2%,90.7%,90.1%
"CC[C@]1(O)C[C@H]2CN(CCc3c([nH]c4ccccc34)[C@@](C(=O)OC)(c3cc4c(cc3OC)N(C=O)[C@H]3[C@@](O)(C(=O)OC)[C@H](OC(C)=O)[C@]5(CC)C=CCN6CC[C@]43[C@@H]65)C2)C1 [vincristine] + COCC[n+]1c2c(n(Cc3cnccn3)c1C)C(=O)c1ccccc1C2=O [YM155] (first compound 0.0001 µM, partner dose 0.0004 µM)",51.5%,42.3%,88.5%,64.5%,54.8%,49.8%
"Cc1cc(Nc2cc(N3CCN(C)CC3)nc(Sc3ccc(NC(=O)C4CC4)cc3)n2)n[nH]1 [Tozasertib] + C=C(c1ccc(C(=O)O)cc1)c1cc2c(cc1C)C(C)(C)CCC2(C)C [Bexarotene] (first compound 0.006 µM, partner dose 2 µM)",85.5%,67.6%,98.7%,88%,82.1%,83.9%
"N#CC[C@H](C1CCCC1)n1cc(-c2ncnc3[nH]ccc23)cn1 [ruxolitinib] + CCc1ccc(CCOc2ccc(CC3SC(=O)NC3=O)cc2)nc1 [pioglitazone] (first compound 1 µM, partner dose 2 µM)",126%,108%,91.6%,94.2%,91%,101%
"N#CC[C@H](C1CCCC1)n1cc(-c2ncnc3[nH]ccc23)cn1 [ruxolitinib] + Clc1ccc(Nc2nnc(Cc3ccncc3)c3ccccc23)cc1 [vatalanib] (first compound 1 µM, partner dose 2 µM)",113%,92.9%,88.1%,116%,93.9%,84.6%
"Cc1cc(Nc2cc(N3CCN(C)CC3)nc(Sc3ccc(NC(=O)C4CC4)cc3)n2)n[nH]1 [Tozasertib] + Clc1ccc(Nc2nnc(Cc3ccncc3)c3ccccc23)cc1 [vatalanib] (first compound 0.006 µM, partner dose 2 µM)",89.9%,83.9%,84.2%,89.4%,87.6%,90.6%
"Cc1cc(Nc2cc(N3CCN(C)CC3)nc(Sc3ccc(NC(=O)C4CC4)cc3)n2)n[nH]1 [Tozasertib] + CN(c1ncccc1CNc1nc(Nc2ccc3c(c2)CC(=O)N3)ncc1C(F)(F)F)S(C)(=O)=O [PF562271] (first compound 0.006 µM, partner dose 0.08 µM)",72.3%,81.3%,81.5%,92.9%,101%,78.2%
"Cc1cc(Nc2cc(N3CCN(C)CC3)nc(Sc3ccc(NC(=O)C4CC4)cc3)n2)n[nH]1 [Tozasertib] + NCC(=O)Nc1ccc(-n2nc(C(F)(F)F)cc2-c2ccc3c(ccc4ccccc43)c2)cc1 [OSU03012] (first compound 0.006 µM, partner dose 1 µM)",99.1%,95.7%,70.5%,60.9%,61.1%,92.3%
"CC[C@]1(O)C[C@H]2CN(CCc3c([nH]c4ccccc34)[C@@](C(=O)OC)(c3cc4c(cc3OC)N(C=O)[C@H]3[C@@](O)(C(=O)OC)[C@H](OC(C)=O)[C@]5(CC)C=CCN6CC[C@]43[C@@H]65)C2)C1 [vincristine] + Cn1cc(/C=C2\C(=O)Nc3cccnc32)c2ccccc21 [GW441756] (first compound 0.0001 µM, partner dose 0.4 µM)",56.6%,56.5%,89.5%,69.3%,93.9%,54.4%
"Cc1cc(Nc2cc(N3CCN(C)CC3)nc(Sc3ccc(NC(=O)C4CC4)cc3)n2)n[nH]1 [Tozasertib] + C[C@]1(O)C[C@@H](c2nc(-c3ccc4ccc(-c5ccccc5)nc4c3)c3c(N)nccn32)C1 [OSI906] (first compound 0.006 µM, partner dose 0.4 µM)",90.6%,75.8%,85.7%,90.6%,97.1%,90.9%
"CC[C@]1(O)C[C@H]2CN(CCc3c([nH]c4ccccc34)[C@@](C(=O)OC)(c3cc4c(cc3OC)N(C=O)[C@H]3[C@@](O)(C(=O)OC)[C@H](OC(C)=O)[C@]5(CC)C=CCN6CC[C@]43[C@@H]65)C2)C1 [vincristine] + Cn1cncc1[C@@](N)(c1ccc(Cl)cc1)c1ccc2c(c1)c(-c1cccc(Cl)c1)cc(=O)n2C [tipifarnib] (first compound 0.0001 µM, partner dose 0.01 µM)",28.4%,44.4%,75.3%,56.5%,66.1%,40.5%
"N#CC[C@H](C1CCCC1)n1cc(-c2ncnc3[nH]ccc23)cn1 [ruxolitinib] + Cc1cc(N2CCOCC2)cc2[nH]c(-c3c(NC[C@@H](O)c4cccc(Cl)c4)cc[nH]c3=O)nc12 [BMS536924] (first compound 1 µM, partner dose 0.2 µM)",112%,100%,71%,103%,85.6%,76.1%
"N#CC[C@H](C1CCCC1)n1cc(-c2ncnc3[nH]ccc23)cn1 [ruxolitinib] + COc1ccc(C2=N[C@@H](c3ccc(Cl)cc3)[C@@H](c3ccc(Cl)cc3)N2C(=O)N2CCNC(=O)C2)c(OC(C)C)c1 [Nutlin-3] (first compound 1 µM, partner dose 0.1 µM)",99.4%,119%,109%,111%,133%,133%
"CC[C@]1(O)C[C@H]2CN(CCc3c([nH]c4ccccc34)[C@@](C(=O)OC)(c3cc4c(cc3OC)N(C=O)[C@H]3[C@@](O)(C(=O)OC)[C@H](OC(C)=O)[C@]5(CC)C=CCN6CC[C@]43[C@@H]65)C2)C1 [vincristine] + C=CCn1c(=O)c2cnc(Nc3ccc(N4CCN(C)CC4)cc3)nc2n1-c1cccc(C(C)(C)O)n1 [MK1775] (first compound 0.0001 µM, partner dose 0.02 µM)",40%,40.1%,76.1%,72.6%,38.4%,56.2%
"Cc1cc(Nc2cc(N3CCN(C)CC3)nc(Sc3ccc(NC(=O)C4CC4)cc3)n2)n[nH]1 [Tozasertib] + Oc1cc(-c2nc(-c3ccccc3)[nH]c2-c2ccncc2)ccc1Cl [L779450] (first compound 0.006 µM, partner dose 0.2 µM)",90.5%,91.7%,96.7%,81.2%,97.7%,114%
"Cc1cc(Nc2cc(N3CCN(C)CC3)nc(Sc3ccc(NC(=O)C4CC4)cc3)n2)n[nH]1 [Tozasertib] + c1cc(-c2cnn3cc(-c4ccc(OCCN5CCCCC5)cc4)cnc23)ccn1 [Dorsomorphin] (first compound 0.006 µM, partner dose 0.4 µM)",92.7%,84.3%,79.3%,103%,93.5%,93%
"CC[C@]1(O)C[C@H]2CN(CCc3c([nH]c4ccccc34)[C@@](C(=O)OC)(c3cc4c(cc3OC)N(C=O)[C@H]3[C@@](O)(C(=O)OC)[C@H](OC(C)=O)[C@]5(CC)C=CCN6CC[C@]43[C@@H]65)C2)C1 [vincristine] + Oc1cc(-c2nc(-c3ccccc3)[nH]c2-c2ccncc2)ccc1Cl [L779450] (first compound 0.0001 µM, partner dose 0.2 µM)",45%,47.9%,90.3%,57.1%,60.1%,58%
